Assays:
[1] = molecular target: T1, Borealin, subunit of CPC-GFP (human, UniProt Q53HL2 1-280); test: SEC + other: mass photometry
T1 sequence: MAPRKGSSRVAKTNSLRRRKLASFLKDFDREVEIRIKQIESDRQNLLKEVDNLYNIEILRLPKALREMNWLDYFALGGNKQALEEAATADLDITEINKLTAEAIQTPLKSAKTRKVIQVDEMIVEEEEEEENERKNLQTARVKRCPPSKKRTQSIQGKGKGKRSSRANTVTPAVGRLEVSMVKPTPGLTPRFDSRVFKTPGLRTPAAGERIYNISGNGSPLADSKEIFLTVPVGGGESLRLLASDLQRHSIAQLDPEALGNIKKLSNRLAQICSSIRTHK

[2] = molecular target: GFP-tagged Aurora B kinase, subunit of CPC-GFP (human, UniProt Q96GD4 1-344); test: SEC + other: mass photometry
UniProt Q96GD4, sequence (Q96GD4 whole entry): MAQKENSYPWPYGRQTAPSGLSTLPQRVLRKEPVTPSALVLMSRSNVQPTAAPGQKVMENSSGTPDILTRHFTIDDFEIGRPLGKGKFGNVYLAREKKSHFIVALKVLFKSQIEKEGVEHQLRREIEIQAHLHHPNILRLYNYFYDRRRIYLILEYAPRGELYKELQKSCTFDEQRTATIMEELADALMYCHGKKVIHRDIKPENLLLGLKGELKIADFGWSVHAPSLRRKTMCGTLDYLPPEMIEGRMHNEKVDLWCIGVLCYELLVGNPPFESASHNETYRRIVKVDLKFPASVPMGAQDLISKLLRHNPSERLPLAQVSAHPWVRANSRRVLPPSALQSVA

stoichiometry N [1]: 1
stoichiometry N [2]: 1
B1: INCENP (Inner Centromere Protein), subunit of CPC-GFP (natural protein)
chain: MGTTAPGPIHLLELCDQKLMEFLCNMDNKDLVWLEEIQEEAERMFTREFSKEPELMPKTPSQKNRRKKRRISYVQDENRDPIRRRLSRRKSRSSQLSSRRLRSKDSVEKLATVVGENGSVLRRVTRAAAAAAAATMALAAPSSPTPESPTMLTKKPEDNHTQCQLVPVVEIGISERQNAEQHVTQLMSTEPLPRTLSPTPASATAPTSQGIPTSDEESTPKKSKARILESITVSSLMATPQDPKGQGVGTGRSASKLRIAQVSPGPRDSPAFPDSPWRERVLAPILPDNFSTPTGSRTDSQSVRHSPIAPSSPSPQVLAQKYSLVAKQESVVRRASRRLAKKTAEEPAASGRIICHSYLERLLNVEVPQKVGSEQKEPPEEAEPVAAAEPEVPENNGNNSWPHNDTEIANSTPNPKPAASSPETPSAGQQEAKTDQADGPREPPQSARRKRSYKQAVSELDEEQHLEDEELQPPRSKTPSSPCPASKVVRPLRTFLHTVQRNQMLMTPTSAPRSVMKSFIKRNTPLRMDPKCSFVEKERQRLENLRRKEEAEQLRRQKVEEDKRRRLEEVKLKREERLRKVLQARERVEQMKEEKKKQIEQKFAQIDEKTEKAKEERLAEEKAKKKAAAKKMEEVEARRKQEEEARRLRWLQQEEEERRHQELLQKKKEEEQERLRKAAEAKRLAEQREQERREQERREQERREQERREQERREQERQLAEQERRREQERLQAERELQEREKALRLQKEQLQRELEEKKKKEEQQRLAERQLQEEQEKKAKEAAGASKALNVTVDVQSPACTSYQMTPQGHRAPPKINPDNYGMDLNSDDSTDDEAHPRKPIPTWARGTPLSQAIIHQYYHPPNLLELFGTILPLDLEDIFKKSKPRYHKRTSSAVWNSPPLQGARVPSSLAYSLKKH

— paper doi:10.1101/2025.09.02.673761 (bioRxiv, 2025)
